The target in the assay is S1RBD-his (SARS-CoV-2 S1蛋白RBD与His的融合蛋白) (SARS-CoV-2).

B1: human ACE2-hFc([…]) (Fc fusion)
chain: not shown
For the molecule B1, the Kd was found to be 13.9 nM, the koff was determined as 0.00373 s⁻¹ and the association rate constant (kon) stood at 268000 M⁻¹ s⁻¹.

The Kd is the equilibrium constant for the complex coming apart. What is called koff is the first-order rate constant of dissociation. The term kon denotes the rate constant with which the complex forms. A low value points to slower complex formation.

Source of the values: patent publication CN113388028A (SHENZHEN FUTIAN GEWU ZHIKANG PATHOGEN RES INSTITUTE; …, dated 2021).
